This note sets out measurements from patent publication US12715909 (ENTHERA S R L, dated 2026).

Test [1] addresses T1, human IGFBP5 (human, UniProt P24593).
T1 construct: Bought protein; in BLI it was in solution; also called hIGFBP-5
As to the kind of experiment: BLI (Octet/BLItz), mAb captured via Fc on AHC biosensor, antigen in solution. Here is the method: (§1) To assess the binding affinity in more detail, affinity measurements were performed using Biomolecular Interaction Analysis performed by an Octet platform (BLItz System), which is a Biolayer Interferometry (BLI) platform. To establish the assay, the target monoclonal antibody (mAb, 2 identical antigen binding moieties, 2 μg/ml in 1% BSA containing 0.05% Tween 20) was immobilized via Fc on the via AHC biosensor and the interaction with the antigen human IGFBP5 (R&D, cat n° 875-B5) and mouse IGFBP5 (R&D, cat n° 578-B5) at different concentration were measured.

Test [2] deals with T2, mouse IGFBP5 (mouse, UniProt Q07079 20-271).
T2 construct: Bought protein; in solution in BLI; also called mIGFBP-5; murine IGFBP5
T2 sequence (Q07079 20-271 limits assumed): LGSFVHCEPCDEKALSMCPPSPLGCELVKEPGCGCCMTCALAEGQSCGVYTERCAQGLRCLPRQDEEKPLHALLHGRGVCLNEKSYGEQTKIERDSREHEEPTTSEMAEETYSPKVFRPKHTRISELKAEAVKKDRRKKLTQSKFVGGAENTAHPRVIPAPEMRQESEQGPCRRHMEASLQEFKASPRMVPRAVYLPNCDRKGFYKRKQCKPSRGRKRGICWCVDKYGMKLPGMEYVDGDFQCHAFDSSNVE
The description is as above. How it is done: as §1

T1 sequence (P24593 21-272 limits assumed): as the sequence (Q07079 20-271 limits assumed) above, with G87R, T90V, V116I, V157I, P159S, F183L, A245T counted along it

B1: B06 full length mAb (antibody, V domains shown)
VH: [letters of about 100 residues left out]GAGTLDYWGQGTLVTVSS
VL: DIVMTQSPDSLAVSLGERATINCKSSQSVLYSSNNKNYLSWYQQKPGQPPKLLIYWASTRESGVPDRFSGSGSGTDFTLTISSLQAEDVAVYYCQQYYSTPLTFGGGTKVEIK
notes: also called anti-IGFBP5 mAb B06
Regarding B1, the Kd in test [1] and in test [2] was 0.1 nM in each case.
